Assay results reported in PubChem BioAssay AID360 (National Center for Advancing Translational Sciences (NCATS), 2006).
The campaign covered roughly 48,000 compounds. About 550 (1.1%) were called active. About 4% were inconclusive and are not listed. No stated cut-off is given here; in the data, active means potency below about 15 µM; inconclusive means mostly about 16 µM to 33 µM; inactive means weaker than that. The list shows a part of the results.

Target: Lysosomal acid glucosylceramidase (Homo sapiens) (UniProt P04062)
Assay: Glucocerebrosidase;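 further: the screen sought inhibitors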
Conditions: purified enzyme, resorufin glucoside fluorescence (screen aimed at inhibitors), 20 min
Outline: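 Wild-type enzyme at 0.2 nM final in 50mM citric acid/KH2PO4, 10mM sodium taurocholate, 0.01% tween-20, pH 5.9, with resorufin beta-D-glucopyranoside at 30 uM final. Compounds titrated, 20 min at RT, red fluorescence read; AC50 from titration.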
Potency means the concentration at half of the fitted maximal effect.

Sequence of UniProt P04062 (P04062 whole entry, looked up): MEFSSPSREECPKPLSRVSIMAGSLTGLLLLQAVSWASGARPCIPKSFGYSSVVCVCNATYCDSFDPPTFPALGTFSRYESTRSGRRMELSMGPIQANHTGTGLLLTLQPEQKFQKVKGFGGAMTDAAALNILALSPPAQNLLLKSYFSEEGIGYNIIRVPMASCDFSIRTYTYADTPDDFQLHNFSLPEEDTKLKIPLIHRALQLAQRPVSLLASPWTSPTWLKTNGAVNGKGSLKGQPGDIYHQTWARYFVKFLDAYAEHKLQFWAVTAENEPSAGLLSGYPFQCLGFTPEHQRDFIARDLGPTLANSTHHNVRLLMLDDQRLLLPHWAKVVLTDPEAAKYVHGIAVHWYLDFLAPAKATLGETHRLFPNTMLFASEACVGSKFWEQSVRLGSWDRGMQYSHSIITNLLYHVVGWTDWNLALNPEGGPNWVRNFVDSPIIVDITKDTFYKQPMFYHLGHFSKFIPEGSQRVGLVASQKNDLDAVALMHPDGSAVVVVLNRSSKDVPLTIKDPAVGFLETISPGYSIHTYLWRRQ

Potency, inactive:
COC(=O)c1ccccc1N(C)C(=O)C12CCC(C)(C(=O)O1)C2(C)C (stereo not drawn) > 76.9 µM, CCC(C)NC(=O)C1(C)CCC(=O)N1Cc1ccccc1OC (stereo not drawn) > 76.9 µM, Cc1nn(-c2ccccc2)c2nc(=O)n(-c3ccccc3)cc12 > 76.9 µM, CCN(CC)S(=O)(=O)c1ccc(NC2CCCc3ccccc32)nc1 (stereo not drawn) > 76.9 µM, c1ccc(-n2ncc3c(NCc4ccccn4)ncnc32)cc1 > 76.9 µM, O=C(O)CSCC(=O)NCc1ccccc1 > 76.9 µM, COc1ccc(CCNC(=O)c2nn(C)cc2Cl)cc1 > 76.9 µM, COc1cc(OC)cc(C(=O)Nc2ccccc2N2CCOCC2)c1 > 76.9 µM, COc1ccccc1CN(Cc1cc2cc(C)ccc2[nH]c1=O)Cc1nnnn1Cc1ccco1 > 76.9 µM, CCOC(=O)CN1C2=NCCN2c2ccccc21 > 76.9 µM, O=C(O)c1ncn(Cc2ccccc2)c1C(=O)O > 76.9 µM, N#Cc1c(-c2ccccc2)cc(C2CC2)nc1N > 76.9 µM, COc1cccc(Cn2c(N)c(C#N)c3nc4ccccc4nc32)c1OC > 76.9 µM, Clc1ccc(Cc2nn3c(-c4ccncc4)nnc3s2)cc1 > 76.9 µM, O=C1CCc2cc(S(=O)(=O)N3CCN(c4cccc(Cl)c4)CC3)ccc2N1 > 76.9 µM, CC(C)(C)NS(=O)(=O)c1ccc(CCC(=O)N2CCCCC2)cc1 > 76.9 µM, Cc1csc(NC(=O)c2nc3nc(C)cc(C)n3n2)n1 > 76.9 µM, COc1cccc(C2=NOC(C(=O)NCC3CCCO3)C2)c1 (stereo not drawn) > 76.9 µM, O=C(COc1ccc2ccccc2c1Br)Nc1ncn[nH]1 > 76.9 µM, Cc1nc2cc(-n3ccc(=O)cc3)ccc2n1-c1ccccc1 > 76.9 µM, COC(=O)c1cc(OC)c(OC)cc1NC(=O)CCCCCN1C(=O)CCC1=O > 76.9 µM, O=C(Nc1cccnc1)C1OCCc2ccccc21 (stereo not drawn) > 76.9 µM, O=C(COc1ccc(S(=O)(=O)N2CCOCC2)cc1)Nc1ccc2c(c1)OCCO2 > 76.9 µM, COc1ccc(Cl)c(Cn2c(NCCCO)nc3c2c(=O)n(C)c(=O)n3C)c1 > 76.9 µM, CCOc1ccccc1NC(=O)c1ccccc1N(C)S(C)(=O)=O > 76.9 µM, CN(C)c1ccc(C2C3=C(CCCC3=O)OC3=C2C(=O)CCC3)cc1 > 76.9 µM, Cn1c(CN2CCCCC2)nc2cc(NS(=O)(=O)c3ccc(Cl)cc3)ccc21 > 76.9 µM, CCOC(=O)N1CCC(NC(=O)Cn2ncc3ccccc32)CC1 > 76.9 µM, Cc1nc2sc(C(=O)O)c(N)c2c2c1COC(C)(C)C2 > 76.9 µM, COc1ccc(NC(C)=O)cc1NC(=O)CSc1nnc(-c2ccccc2)n1N > 76.9 µM, CC(C)c1ccc(N2CC(C(=O)Nc3nccs3)CC2=O)cc1 (stereo not drawn) > 76.9 µM, CSc1nsc(SC)c1C(=O)NCCNS(=O)(=O)c1ccc(C)cc1 > 76.9 µM, NC(=O)C1CCN(c2nc(-c3ccccc3)nc3ccccc23)CC1 > 76.9 µM, CC(C)c1cc(C(F)(F)F)n2nc(C(=O)Nc3ccc4c(c3)OCO4)cc2n1 > 76.9 µM, CC1=CC(=C2C(=O)c3ccccc3C2=O)C=C(C)O1 > 76.9 µM, Cc1cc(C(=O)CSc2nc3ccccc3c(=O)[nH]2)c(C)n1C > 76.9 µM, COC(=O)c1cccc(NC(=O)c2nn(C(C)C)c(=O)c3ccccc23)c1 > 76.9 µM, CC1N=C2c3ccccc3N=C(SCc3cc(=O)n4cc(Cl)ccc4n3)N2C1=O (stereo not drawn) > 76.9 µM, CC(C)Cc1nc2oc3c(NCC4CCCO4)ncnc3c2c2c1CCC2 (stereo not drawn) > 76.9 µM, Cn1c(CC(=O)Nc2ccccc2)nnc1SCC(=O)c1ccccc1 > 76.9 µM, Cc1sc(NC(=O)c2oc3ccccc3c2C)c(C#N)c1C > 76.9 µM, COC(=O)c1ccc(CNC(=O)COc2ccccc2Br)o1 > 76.9 µM, Cn1c(=O)c2c(nc(CN3CCN(c4ccccc4F)CC3)n2CCN2CCOCC2)n(C)c1=O > 76.9 µM, O=C(Nc1nccs1)NC1CCCCC1 > 76.9 µM, COC(=O)c1cc2ccsc2n1CC(=O)N(C)c1ccccc1, COCCn1c(SCC(=O)Nc2ccc(S(=O)(=O)N3CCOCC3)cc2)nc2ccccc21 > 76.9 µM, CCn1c(SCC(=O)Nc2ccc(S(N)(=O)=O)cc2)nnc1-c1cccc(OC)c1 > 76.9 µM, COCC(=O)N(C)c1nnc(-c2ccccn2)s1 > 76.9 µM, C=CCn1c(COc2ccccc2)nnc1SCC(=O)Nc1ccc2c(c1)OCCO2 > 76.9 µM, Cc1nc2ccc(C(=O)O)cc2c2c1CC(C)S2 (stereo not drawn) > 76.9 µM, CCOC(=O)c1ccccc1NC(=O)c1ccccc1NS(C)(=O)=O > 76.9 µM, Cc1ccc2cccc(S(=O)(=O)NC3CCS(=O)(=O)C3)c2n1 (stereo not drawn) > 76.9 µM, CCOC(=O)NC(Nc1nc2ccccc2s1)(C(=O)OCC)C(F)(F)F (stereo not drawn) > 76.9 µM, CCOC(=O)c1sc(NC(=O)CSc2nnnn2-c2ccc(C)cc2C)nc1C > 76.9 µM, CC(=O)N1CCc2cc(Br)cc(S(=O)(=O)NCCN3CCCCC3C)c21 (stereo not drawn) > 76.9 µM, O=C(NCCC1=CCCCC1)C1CCN(Cc2cnn(-c3ccccc3)c2-n2cccc2)CC1 > 15.4 µM, COC(=O)COc1cccc(NC(=O)c2cccs2)c1 > 76.9 µM, COc1ccc(-c2ccc(SCC(=O)Nc3cc(C)on3)nn2)cc1OC > 76.9 µM
